This is one part of the list.
System: T1, C. trachomatis L2/434/Bu expressing GFP (CTL2-GFP)
T1 construct: L2/434/Bu GFP intracellular growth in HeLa cells
Design: species or system HeLa; C. trachomatis total inclusion area by high-content imaging, normalised to DMSO
Conditions: total inclusion area; 28.5 h, 10 µM; inhibitor
Outline: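 Bulk GFP and resorufin signals were read first. Wells were then fixed, stained with Hoechst and imaged to detect GFP inclusions and host nuclei. MICs followed the previously described calculation.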

Row | Compound | % of control remaining
1 | O=C(Nc1ccc(F)cc1)N[C@H]1[C@H](O)[C@@H](N2CCCCC2)[C@@H]2OC[C@H]1O2 [CBK288826] | 120.858
2 | O=C(COc1ccc(Cl)cc1Cl)Nc1ccc2cc[nH]c2c1 [CBK160023] | 99.5392
3 | O=C(NCCOc1ccccc1)N1CCN(c2ccccc2)CC1 [CBK155198] | 90.9504
4 | CN1CCN(C(=O)CN(C)S(=O)(=O)c2ccc3ccccc3c2)CC1 [CBK267053] | 81.6607
5 | O=C1CCC(=O)N1CCOc1nccnc1N1CCN(CC2CC2)CC1 [CBK084305] | 84.274
6 | FC(F)(F)c1ccc(Oc2ccc(-c3noc(-c4ccccn4)n3)cc2)nc1 [CBK270152] | 77.5331
7 | CN(C)CC1CCCN(C(=O)c2cc3cc(F)ccc3n2C)C1 (centres unmarked) [CBK282122] | 91.6213
8 | COC(=O)Cn1c(CN2CCN(c3cccc(Cl)c3)CC2)nc2c1c(=O)n(C)c(=O)n2C [CBK269598] | 84.5549
9 | CCc1nc2ccccc2n1CC(=O)O [CBK111477] | 94.103
10 | COc1ccc(C(=O)NCCc2nc3ccccc3[nH]2)cc1 [CBK261040] | 87.7997
11 | Cc1cc2nnc(SC(C)c3nc(-c4ccccc4)no3)n2c(C)n1 (centres unmarked) [CBK298306] | 86.401
12 | O=C(O)C1CC(=O)N(CCc2c[nH]c3ccc(Cl)cc23)C1 (centres unmarked) [CBK287211] | 106.938
13 | O=C(O)C1CCCCC1C(=O)NCCc1ccccc1 (centres unmarked) [CBK261707] | 104.018
14 | Cc1ccccc1C(c1cnccn1)N(C)C(=O)C1CCN(S(=O)(=O)C(C)C)CC1 (centres unmarked) [CBK060242] | 103.13
15 | O=C(c1cnn(-c2cccc(Cl)c2)c1)N1CCOCC1CC(F)F (centres unmarked) [CBK304207] | 6.013
16 | COc1cc(OC)c(NS(=O)(=O)c2cc(C(=O)O)ccc2C)cc1Cl [CBK296105] | 80.7469
17 | CCc1nc2ccccc2n1C1CCN(C(=O)Cc2cccnc2)CC1 [CBK306389] | 10.6016
18 | COc1ccc(Cl)cc1NC(=S)NNC(=O)c1cccnc1 [CBK267161] | 99.3246
19 | N#Cc1c(NC(=O)c2cccnc2)sc2c1CCCCC2 [CBK287584] | 93.5798
20 | C/C(=N\NC(=O)CN(c1ccc(C)cc1)S(=O)(=O)c1ccccc1)c1ccc(Cl)cc1 [CBK262229] | 106.178
21 | O=c1[nH]c2ncc(-c3cccc(Br)c3)nc2n1CCc1cccnc1 [CBK064457] | 71.0355
22 | COc1cccc(CN2CCCC(NC(=O)c3cnn(C(C)C)c3)C2)c1 (centres unmarked) [CBK307477] | 41.7693
23 | O=C(OCc1ccccc1F)c1cccc(-c2nnc(-c3ccccc3)o2)c1 [CBK267798] | 91.7687
24 | CN(CC1(C)COC1)C(=O)C1CC(=O)N(C(C)(C)C)C1 (centres unmarked) [CBK281724] | 117.342
25 | Cn1cc(C(=O)N2CCc3ncc(Cl)cc3C2)ccc1=O [CBK285130] | 90.0791
26 | O=C(CC1CCCCC1)Nc1ccc(Cl)nc1 [CBK091349] | 65.9535

Row | Compound | % of control remaining
27 | CCOC(=O)c1cccc(S(=O)(=O)NC(C)Cn2cncn2)c1 (centres unmarked) [CBK305820] | 71.0805
28 | O=C(NCc1cccs1)c1ccc2[nH]ccc2c1 [CBK149060] | 90.8098
29 | COc1ccc(C2(C(=O)NCc3cccs3)CC2)cc1 [CBK149831] | 95.5695
30 | COCC(=O)N1CCc2sccc2C1c1ccc(NCc2ccc(C)o2)cc1 (centres unmarked) [CBK286447] | 108.886
31 | CC(C)CSc1nsc(N)n1 [CBK019938] | 91.4775
32 | COc1ccc(OCCNC(=O)c2ccccc2-n2cccc2)cc1 [CBK149592] | 92.1718
33 | O=C(CSc1ccc(Cl)cc1)Nc1cc(C(=O)O)cc(C(=O)O)c1 [CBK266531] | 97.2875
34 | Cc1cc(=O)oc2cc(OCc3ccc(S(=O)(=O)N4CCOCC4)cc3)ccc12 [CBK267402] | 112.904
35 | CC(=O)N1CCC(C(=O)Nc2cnc(-c3ccc(F)c(Cl)c3)c(-c3cccnc3)n2)CC1 [CBK036719] | 56.1197
36 | Cc1ccc(S(=O)(=O)Nc2ccc(-c3cn4cccnc4n3)cc2)cc1[N+](=O)[O-] [CBK268936] | 83.4947
37 | O=C(NCc1cccnc1)c1cc(Br)cnc1NCCOc1ccccc1 [CBK076265] | 95.7992
38 | O=C(NCCCN1CCCC1=O)c1cnc(-c2ccc(Cl)cc2)c(-c2ccncc2)c1 [CBK037545] | 106.772
39 | O=C(Cn1cccc(C(=O)NC2CCCCC2)c1=O)NC1(c2ccccc2)CCCC1 [CBK286059] | 112.184
40 | CCC1CCCCN1C(=O)c1cccc(C(=O)OC)c1 (centres unmarked) [CBK083195] | 56.9464
41 | Cc1cccn2c(=O)c(/C=C3\SC(=S)N(C(C)c4ccccc4)C3=O)c(NCCCn3ccnc3)nc12 (centres unmarked) [CBK263836] | 104.578
42 | O=c1[nH]c2ncc(-c3cccc4cccnc34)nc2n1C1CCCCC1 [CBK064215] | 86.0343
43 | Cc1cccc(C)c1NC(=O)CSc1nnc(-c2cccnc2)n1Cc1ccccc1 [CBK265620] | 100.468
44 | CCN(C(=O)c1ccc(C)nc1)[C@H]1CCO[C@@H](c2cccc(-c3cc(F)cc(F)c3)c2)C1 [CBK285856] | 104.664
45 | N#Cc1cc2c(nc1SCC(O)COCc1ccccc1)CCCC2 (centres unmarked) [CBK265967] | 71.5906
46 | N#C/C(=C/c1ccc(OCc2cccc(C(=O)O)c2)cc1)c1ccc([N+](=O)[O-])cc1 [CBK266626] | 93.6094
47 | CCCOC1CCCN(S(=O)(=O)c2cnc3ccsc3c2)C1 (centres unmarked) [CBK306367] | 41.6524
48 | CCn1c2cc(C)sc2c2cnn(Cc3cccnc3)c(=O)c21 [CBK284169] | 94.4294
49 | Cc1noc(C)c1NC(=O)N(Cc1ccc2ccccc2c1)CC1CCNCC1 [CBK049774] | 63.3599
50 | CN(C)[C@H]1CC[C@@H](Cc2ccccc2)C[C@@H]1NC(=O)c1ccc(Cl)c(Cl)c1 [CBK012488] | 1.578
51 | COCC(=O)NC[C@H]1C[C@@H]2CCN1C[C@@H]2c1cc(-c2ccccc2)nc(C)n1 [CBK289123] | 83.3628
52 | Fc1ccc(Sc2nc3ccccc3nc2N2CCCC2)cc1 [CBK089543] | 96.4158

Row | Compound | % of control remaining
53 | Cc1cc(C)nc(Nc2n[nH]c(-c3ccc(N)cc3)n2)n1 [CBK267131] | 112.191
54 | CN(C)CCOC(=O)c1ccc2[nH]c3c(c2c1)CSCC3 [CBK009731C] | 101.99
55 | CCNS(=O)(=O)c1ccc(CCC(=O)Nc2ccc3c(c2)OCO3)cc1 [CBK268367] | 125.165
56 | Cc1cc(CNC(=O)c2ccc3c(c2)OCO3)c2ccccc2n1 [CBK270014] | 51.1985
57 | COc1ccc(C2(C(=O)NCc3ccc(-c4ccc(C(N)=O)c(C)n4)cc3)CCCC2)cc1 [CBK285647] | 50.7524
58 | O=C(c1cc(-c2ccncc2)nc2ccc(Cl)cc12)N1CCN(c2ccc([N+](=O)[O-])cc2)CC1 [CBK267748] | 106.052
59 | CCc1cnccc1C(=O)N1CCC(NC(=O)c2cnn(C)c2)CC1 [CBK305388] | 90.5645
60 | CC(C)CN(CCc1ccc(O)cc1)CC(=O)NC1(c2ccccc2)CCC1 [CBK067781T] | 74.3886
61 | CNC(=O)C1(Cc2ccc(-c3ccccc3)cc2)CCN(C(=O)Cc2ccc(C)cc2)CC1 [CBK285769] | 112.558
62 | CC(=O)N[C@H]1CC[C@]2(C)CCC([C@H](C)C(=O)NCCN3CCCC3)[C@H](O)[C@H]2[C@@H]1C (some centres unmarked) [CBK289440] | 115.325
63 | O=C(COc1ccccc1)NC(/C=C/c1ccccc1)c1cc(Cl)c2cccnc2c1O (centres unmarked) [CBK263994] | 57.8956
64 | Cc1nnc(SCC(=O)NCCc2ccccc2)nc1O [CBK268045] | 108.958
65 | COc1cccc(-c2nnc(SCC(=O)Nc3cccc([N+](=O)[O-])c3)n2C)c1 [CBK266074] | 74.2908
66 | Cc1oc(-c2ccccc2)nc1C(=O)N1CCCN(C)CC1 [CBK073940C] | 74.1502
67 | Cc1cc(NC(=O)CN(C)C(=O)Cc2cccc(C(F)(F)F)c2)no1 [CBK305564] | 109.377
68 | C=CCNC(=O)C1(Cc2ccccc2-c2ccncc2)CCOCC1 [CBK284784] | 121.002
69 | c1ccc2c(c1)OCC(c1nn3c(Cn4cnc5ccccc54)nnc3s1)O2 (centres unmarked) [CBK268436] | 91.0544
70 | Cc1ccc(C(=O)COc2ccc(/C=C(\C#N)c3nc(-c4ccc5c(c4)OCO5)cs3)cc2)cc1 [CBK266778] | 80.0402
71 | Cc1ccc(S(=O)(=O)N/N=C(/c2ccccc2)c2ccc(OCC(C)C)cc2)cc1 [CBK261056] | 86.2396
72 | CC(=O)N1c2ccc(-c3cn4cc(C)ccc4n3)cc2CC1C (centres unmarked) [CBK285195] | 91.3826
73 | CC(=O)N1CCc2sccc2C1c1ccccc1NC(=O)c1ccco1 (centres unmarked) [CBK286436] | 103.022
74 | CC1CCCCN1Cc1nc2c(c(=O)n(C)c(=O)n2C)n1CCc1ccccc1 (centres unmarked) [CBK269189] | 114.505
75 | Cc1cccc(C(=O)NC(CC(C)C)c2nnc3n2CCNCC3)n1 (centres unmarked) [CBK306866] | 90.4648
76 | Cc1nnc(SCC(=O)N/N=C/c2coc3ccccc3c2=O)n1-c1ccccc1 [CBK262842] | 92.5113
77 | COCC(=O)N[C@H]1CCN2C(=O)c3cc(-c4cccc(C)c4C)ccc3NC(=O)[C@@H]2C1 [CBK289562] | 106.187

Source: paper PMC12040169 (PLOS Biology, 2025)
